Test results from PubChem BioAssay AID463173 (ICCB-Longwood Screening Facility, Harvard Medical School, 2010).
In all, about 52,000 compounds went through this assay and about 4,300 (8.3%) were called active. No stated cut-off is given here; in the data, active means survival mostly below about 52% (no sharp cut-off); inactive means mostly above about 56%. The list shows a part of the results.

These molecules were tested on DeltatarO mutant (assay: growth inhibition of S. aureus wild type versus tarO mutant, primary screen, teichoic acid synthesis inhibitors, RN4220, OD600 (AID 463173)). Conditions: OD600, 18 h, active compounds read low, screened at 18.75 µg/mL (by protocol).

| SMILES | survival |
| --- | --- |
| CC(C)Oc1ccc(CNC(=O)C2CCN(c3nc4ccccc4nc3C(F)(F)F)CC2)cc1 | inactive: 69% |
| CCC1Oc2ccc(C)cc2N(CC(=O)NCc2ccc(OC)cc2)C1=O (configuration not stated) | active: 39% |
| CCCCN1C(=O)c2[nH]nc(-c3ccccc3O)c2C1c1ccc(C(C)(C)C)cc1 (configuration not stated) | inactive: 88% |
| O=C(Nc1cccc(Cl)c1)c1ccc2nc(CCc3ccccc3)oc2c1 | inactive: 69% |
| CCCn1c2ccccc2c2cnn(CC(=O)NCc3ccccc3Cl)c(=O)c21 | inactive: 108% |
| O=c1oc2ccccc2cc1-c1nnc(Nc2ccc(Cl)cc2Cl)s1 | inactive: 81% |
| CCN(CC)CCCNC(=O)Cc1ccc(NC(=O)N2CCCCc3ccccc32)cc1 | inactive: 79% |
| Cc1ccc(Cn2c(-c3ccccc3)nc3ccccc32)cc1 | active: -2% |
| Cc1ccc(-c2nc3ccccc3n3c(-c4ccccc4)c4c(=O)n(C)c(=O)n(C)c4c23)cc1 | inactive: 97% |
| COc1ccc(S(=O)(=O)N2CCN(c3ccccc3OC)CC2)cc1-c1noc(C)n1 | inactive: 110% |
| Nc1ccc(CNc2ncn[nH]2)cc1 | inactive: 92% |
| COc1ccc(Cn2nnnc2C(C(C)C)N2CCc3ccccc32)cc1 (configuration not stated) | inactive: 82% |
| COc1cc(OC)c(NC(=O)c2cc(CN3CCOCC3)on2)cc1Cl | inactive: 89% |
| CCn1ccc2cc(S(=O)(=O)N3CCCN(C(=O)NCC(C)C)CC3)ccc21 | inactive: 86% |
| CCn1ccc2cc(S(=O)(=O)N3CCC(C(=O)NCc4cccc(C)c4)CC3)ccc21 | inactive: 66% |
| CCCCNC(=O)c1cc(Sc2ccc(OCC)cc2)nc2ccccc12 | inactive: 69% |
| COc1ccccc1N1CCN(c2csc3ccc(Cl)cc3c2=O)CC1 | inactive: 90% |
| COc1ccc(Nc2cc(C(=O)NC3CCCC3)c3ccccc3n2)c(OC)c1 | inactive: 75% |
| CCNC(=O)Cn1c(-c2cccs2)cc2ccccc21 | inactive: 80% |
| Cc1ccc(CN(C(=O)Nc2cccc(Cl)c2)c2ccccn2)cc1 | active: 40% |
| COc1ccc(NC(=O)c2nnn(Cc3nc(-c4cc(Br)ccc4OC)oc3C)c2C)cc1 | inactive: 41% |
| CCOc1cccc(C2c3c(oc4ccc(F)cc4c3=O)C(=O)N2CCc2ccc(OC)cc2)c1 (configuration not stated) | inactive: 94% |
| Cc1oc(C)c2c(=O)cc(-c3ccc4c(c3)OCO4)cc(OC(=O)c3ccccc3Br)c12 | inactive: 106% |

| SMILES | survival |
| --- | --- |
| Cc1cc(C)nc(NCC(O)COc2ccccc2C)n1 (configuration not stated) | inactive: 82% |
| COc1ccc(NC(=O)C2CCN(S(=O)(=O)c3ccc4c(c3)CCCC(=O)N4)CC2)cc1Cl | inactive: 78% |
| Cc1ccc(Cl)c2sc(NC(=O)CS(=O)(=O)c3ccc(Cl)cc3)nc12 | inactive: 77% |
| CCOc1ccc(CNS(=O)(=O)c2c(C(=O)N3CCCCCC3)c(C)n(C)c2C)cc1OC | inactive: 69% |
| CCn1cc(C(=O)NCc2ccc(C)cc2)c(=O)c2cc(S(=O)(=O)N3CCC(C)CC3)ccc21 | inactive: 118% |
| O=C(NCCSCc1ccc(Cl)cc1)C1CCN(S(=O)(=O)Cc2ccccc2)CC1 | inactive: 70% |
| Cc1ccc(-c2c(C(=O)Nc3ccc(F)c(F)c3)oc(=O)c3ccccc23)cc1 | inactive: 80% |
| CN(C)c1ccc(CNC(=O)c2cc3cc(S(=O)(=O)N4CCCCC4)ccc3n2C)cc1 | active: 8% |
| O=C(CN1C(=O)C2CCCCN2c2ccc(C(=O)N3CCCC3)cc21)NCc1cccc(Cl)c1 (configuration not stated) | inactive: 68% |
| COc1ccc(CNC(=O)CCC(=O)N2CC3CCCN3c3ccccc32)cc1 (configuration not stated) | inactive: 71% |
| COc1ccccc1CNC(=O)c1ccc(CS(=O)(=O)c2ccccc2C)o1 | inactive: 67% |
| O=C(NCc1ccccc1)c1ccc(NC(=O)c2nsc3ccccc23)cc1 | inactive: 61% |
| O=C(Nc1cccc(-n2cnnn2)c1)c1ccccc1 | inactive: 95% |
| COc1cc(CN(CC2CCCO2)C(=O)c2ccc(F)cc2)cc(OC)c1OC (configuration not stated) | inactive: 67% |
| CC(=O)N1CCCc2cc(S(=O)(=O)N3CCC(C(=O)NCc4ccc(N(C)C)cc4)CC3)ccc21 | inactive: 69% |
| CCOc1cccc(CC(=O)Nc2ccc3nc(N4CCCCC4)cc(C)c3c2)c1OCC | inactive: 131% |
| Cc1ccc(NC(=O)Nc2nnc(N3CCCC3)s2)c(C)c1 | inactive: 93% |
| Cc1ccc(CNC(=O)Cc2coc3cc(C)cc(C)c23)cc1 | inactive: 102% |
| COc1ccc(C=Nc2ccc3[nH]ncc3c2)c(O)c1 | inactive: 97% |
| CCCCN(C)C(=O)C1CCCN(c2ncnc3onc(-c4ccc(F)cc4)c23)C1 (configuration not stated) | inactive: 77% |
| Cc1cccc(N2CCN(C(=O)CSCc3ccc(F)cc3)CC2)c1C | inactive: 94% |
| CCN(CC)S(=O)(=O)c1ccc2c(c1)c(=O)c(C(=O)NCc1ccccc1)cn2C | inactive: 70% |
| Cc1cc(C)cc(-n2cnc3ccccc3c2=O)c1 | inactive: 96% |

| SMILES | survival |
| --- | --- |
| Cc1ccc(C(C)C)c(OCC(=O)Nc2ccc(S(=O)(=O)Nc3onc(C)c3C)cc2)c1 | inactive: 134% |
| Cc1ccc(C2c3c(oc4ccccc4c3=O)C(=O)N2c2ccc(C)cn2)cc1 (configuration not stated) | inactive: 69% |
| CCOc1ccc2nc(NC(=O)CS(=O)(=O)c3ccc(Cl)cc3)sc2c1 | inactive: 60% |
| N#Cc1ccc(CN2C(=O)c3ccccc3Sc3ccc(C(=O)OCc4ccco4)cc32)cc1 | inactive: 113% |
| COc1ccccc1CNC(=O)C(CC(C)C)NS(=O)(=O)c1ccc2c(c1)oc(=O)n2C (configuration not stated) | inactive: 82% |
| Cn1c(=NC(=O)c2ccc3c(c2)OCCO3)sc2cc(S(C)(=O)=O)ccc21 | inactive: 89% |
| Cc1ccccc1-c1noc(C(C)NC(=O)c2ccco2)n1 (configuration not stated) | inactive: 79% |
| O=C(NC1C2CC3CC(C2)CC1C3)c1cc2ccccc2o1 (configuration not stated) | inactive: 76% |
| CSc1cccc(N=C2C(=O)Nc3ccccc32)c1 | inactive: 76% |
| CCN1CCN(C(C)C(=O)Nc2ccc3c(c2)OCO3)CC1 (configuration not stated) | inactive: 103% |
| Nn1c(C2CC2)nc2cc(Cl)ccc2c1=O | inactive: 77% |
| CCC(=O)N1CCc2cc(S(=O)(=O)NCCC(=O)NCc3ccccc3Cl)ccc21 | inactive: 80% |
| Cc1sc2nc(C(C)C)n3c(=S)[nH]nc3c2c1C | inactive: 74% |
| CCOC(=O)c1ccc(NC(=O)C2CCCN(c3ccc(Sc4ccc(C)cc4)nn3)C2)cc1 (configuration not stated) | inactive: 43% |
| Cc1cc(Br)ccc1NC(=O)CCS(=O)(=O)c1cccc2nsnc12 | inactive: 139% |
| CC(=O)NCCNc1nc2c(S(=O)(=O)c3ccc(C)c(C)c3)nnn2c2ccc(Cl)cc12 | inactive: 75% |
| COC(=O)c1ccc(-n2nnc(-c3nc(-c4ccc5c(c4)OCO5)no3)c2C)cc1 | inactive: 82% |
| CC(C)c1nc2ccc(C(=O)NCCCN3CCN(c4ccccc4F)CC3)cc2o1 | inactive: 88% |
| CCN(C(=O)CN(C)S(=O)(=O)c1ccc2c(c1)c(=O)n(C)c(=O)n2C)c1ccc(OC)cc1 | inactive: 90% |
| CC1=C(C(=O)OCC2CCCCC2)C(c2ccccc2F)CC(=O)N1 (configuration not stated) | inactive: 91% |
| COc1ccccc1CNC(=O)C1CCCN(c2nnc(-n3c(C)ccc3C)s2)C1 (configuration not stated) | inactive: 73% |
| O=S(=O)(Nc1ccncc1)c1ccccc1 | inactive: 70% |
| Cc1ccc(C)c(NC(=O)CN2C(=O)COc3ccc(Cl)cc32)c1 | inactive: 69% |

| SMILES | survival |
| --- | --- |
| Cn1c(=O)nc2n(-c3ccc(Cl)c(Cl)c3)c3cc(Cl)ccc3cc-2c1=O | inactive: 87% |
| O=C(Nc1c(C(=O)Nc2ccc(F)cc2)oc2ccccc12)c1ccccc1F | active: 40% |
| CCn1c(SCCOc2ccccc2F)nc2ccccc21 | active: 0% |
| C/C(CCc1ccc2c(c1)OCO2)=N\N=C1/NC(=O)CC(C(=O)O)S1 (configuration not stated) | inactive: 78% |
| CCOc1ccccc1C(=O)Nc1ccc2c(c1)N(C)C(=O)c1ccccc1S2 | inactive: 70% |
| Cc1cccc(CC(C(=O)Nc2ccccc2)c2nn[nH]n2)c1 (configuration not stated) | inactive: 99% |
| c1ccc(Cn2nnc3c(N4CCCC4)ncnc32)cc1 | inactive: 94% |
| Cc1c(C2=CCN(S(=O)(=O)c3ccc(CC(C)C)cc3)CC2)c2ccccc2n1CC(=O)N1CCCC1 | inactive: 99% |
| Cc1nn(-c2ccc(N3CCOCC3)nn2)c(C)c1CCC(=O)NCc1ccc(OC(C)C)cc1 | inactive: 74% |
| COc1ccc(C(=O)N(Cc2ccc(C(C)C)cc2)C2CCS(=O)(=O)C2)cc1 (configuration not stated) | inactive: 62% |
| Cc1ccccc1CNS(=O)(=O)c1csc(C(N)=O)c1 | inactive: 120% |
| Cc1nc2nc(SCC(=O)NCCc3ccccc3)nn2c(C)c1Cc1c(F)cccc1Cl | active: 37% |
| Cc1ccc(C(C)C)c(OCC(=O)N2CCC(c3nc4ccccc4o3)CC2)c1 | inactive: 80% |
| NC1CCSc2ccccc21 (configuration not stated) | inactive: 85% |
| COc1ccc(N(CC(=O)N2CCN(c3cccc(C)c3C)CC2)S(=O)(=O)c2c(C)noc2C)cc1 | inactive: 94% |
| COc1ccc(-c2cn3nc(N4CCC(C(=O)Nc5cccc(C)c5C)CC4)sc3n2)cc1 | inactive: 67% |
| Cc1c(Cl)cccc1NC(=O)CSc1nc(=O)n(Cc2ccccn2)c2c1CCC2 | inactive: 105% |
| O=C(O)COc1ccccc1/C=N\n1cnnc1 | inactive: 94% |
| Cc1cccc(N(C)S(=O)(=O)c2cc3c(cc2Cl)NC(=O)CO3)c1 | inactive: 81% |
| Cc1nn2c(=O)cc(COC(=O)c3cccc(NC(=O)c4cccs4)c3)nc2s1 | inactive: 67% |
| CCOc1ccc(NS(=O)(=O)c2ccc3[nH]c4c(c3c2)CCCC4)cc1 | inactive: 76% |
| Cc1ccc(NC(=O)C(NS(=O)(=O)c2ccc3c(c2)CCC(=O)N3)c2ccccc2)cc1C (configuration not stated) | inactive: 87% |
| CCOC(=O)C1CCN(CCC(=O)Nc2ccc(Br)c(C)c2)CC1 | inactive: 62% |
